Reference: the supplement of paper PMC3334620
In all, about 33,000 sequences were measured (“E-score (-0.5 to 0.5)”: median about -0.016, highest 2% from about 0.32 on). This is one part of the list.

Molecular target: T1, Stp1 (UniProt B3LFK1)
T1 sequence: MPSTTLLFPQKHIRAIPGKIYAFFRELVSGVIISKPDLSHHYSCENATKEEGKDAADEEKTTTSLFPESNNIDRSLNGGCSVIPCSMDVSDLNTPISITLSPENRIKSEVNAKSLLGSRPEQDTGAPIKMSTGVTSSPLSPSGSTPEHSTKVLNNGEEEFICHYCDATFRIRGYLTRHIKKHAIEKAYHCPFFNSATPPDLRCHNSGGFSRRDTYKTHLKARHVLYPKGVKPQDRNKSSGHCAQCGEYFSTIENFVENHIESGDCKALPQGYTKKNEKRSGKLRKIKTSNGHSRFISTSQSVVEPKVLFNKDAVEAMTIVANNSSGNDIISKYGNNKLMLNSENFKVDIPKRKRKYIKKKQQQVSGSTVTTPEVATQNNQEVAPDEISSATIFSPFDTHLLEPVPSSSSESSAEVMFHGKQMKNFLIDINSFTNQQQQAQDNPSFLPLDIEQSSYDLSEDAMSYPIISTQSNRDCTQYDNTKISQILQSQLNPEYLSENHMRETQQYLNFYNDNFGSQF
Experiment: PBM E-score (8-mer binding enrichment) (E-score (-0.5 to 0.5)); higher = stronger / more preferred TF binding; most listed sequences are background and not binding sites
Conditions: protein concentration: 200 nM; construct: GST-full length
In short: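 The E-score, a modified Wilcoxon-Mann-Whitney statistic, was computed by the Universal PBM Analysis Suite for every ungapped eight-base word pooled with its reverse complement. Scans behind it were normalised with masliner after bound GST-tagged yeast transcription factors were detected with fluorescent anti-GST. The proteins, at about 100-200 nM, had been applied to universal all-10-mer Agilent arrays made double-stranded by primer extension.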

Row | Sequence | PBM E-score
1 | CGCAGGGC | 0.273
2 | ACTGGAAT | -0.0812
3 | GAGAGAAC | -0.0759
4 | GCTCCTGA | 0.0243
5 | CACAAGCG | 0.0749
6 | AATGTTAG | -0.0471
7 | CGGTTGCC | 0.0616
8 | TATCTTCA | 0.046
9 | CGGAATAG | 0.073
10 | ACTGCGGC | 0.381
11 | CGTAACGA | -0.11
12 | CGTTCGCA | -0.0217
13 | CCGGGTAG | -0.306
14 | TTAGCCAA | -0.081
15 | TAACAGAA | 0.195
16 | CGCACCCC | -0.118
17 | TAAGTGTA | 0.0418
18 | ATCTCTCA | 0.153
19 | GCTGGGAA | -0.223
20 | ATTATTCA | 0.0763
21 | TAAGGATA | 0.133
22 | CTCCCAGC | -0.287
23 | CCTTTATC | -0.101
24 | GAGGCTCA | 0.00466
25 | AAATATAG | 0.203

Row | Sequence | PBM E-score
26 | GCATACAC | 0.0999
27 | AGACTACG | -0.245
28 | CGACCCCG | 0.0189
29 | CGCTTAAA | 0.139
30 | CATTTTGA | 0.0378
31 | ATAACTAC | 0.113
32 | AGAAGAGG | -0.133
33 | CACCCCTC | -0.222
34 | CAAGATTG | 0.0193
35 | CCTGCAGG | -0.391
36 | CATAGTCA | -0.195
37 | ACCCGTGC | 0.237
38 | GTTTATAA | 0.223
39 | CGAGTCTC | -0.278
40 | CGACCTAA | 0.164
41 | CCCTGGCC | -0.213
42 | CTTTATTC | -0.0256
43 | GAAGAAAA | 0.038
44 | ATCGGTTA | 0.0451
45 | GCCACCGC | 0.0746
46 | GTTCTACA | -0.0548
47 | CGGCTGCA | 0.211
48 | ATCCTAGC | -0.102
49 | AGAAACCA | -0.0398
50 | GGGGAAAA | -0.0879

Row | Sequence | PBM E-score
51 | AGATCGCC | 0.128
52 | CATAGGAC | -0.0813
53 | CAGAACGA | 0.00724
54 | ACAGCGGG | -0.0101
55 | ATTGCAGC | 0.102
56 | GCTACGTA | 0.0838
57 | ACTTGCAT | 0.0252
58 | ATGCCTGG | -0.138
59 | CCCATACA | -0.13
60 | ACCTAAAC | 0.061
61 | AGCGTCAT | -0.027
62 | CAAAGCGG | 0.255
63 | CTTTACGC | 0.161
64 | CAATCCAG | -0.0467
65 | CACTATGG | -0.122
66 | ACACATAG | 0.00861
67 | GACTCGTA | -0.0514
68 | ACAGTTAG | 0.0289
69 | AGAGTGTG | -0.0412
70 | CAAGAACC | 0.0954
71 | TGCCGTAA | 0.34
72 | CGTTAACG | -0.107
73 | GAGCCTAA | 0.0529
74 | ATAATTCA | 0.217
75 | GAAGGCGC | 0.333

Row | Sequence | PBM E-score
76 | AGCTATTA | -0.0634
77 | CGCAACTA | -0.0465
78 | TCTGACAA | -0.0284
79 | CCGTTCCA | 0.243
80 | CGCCTTGA | 0.0844
81 | TCGGTCAA | 0.0199
82 | CGTCGCTA | 0.215
83 | ATCGAGAT | -0.166
84 | GCACTCCC | -0.0814
85 | GAAACTGA | -0.0484
86 | CCGACCTA | -0.0536
87 | AAAGACCG | -0.0929
88 | CACTACAA | 0.169
89 | ACGCGACG | -0.0983
90 | ACGGCGAT | 0.479
91 | AAAGTTCT | -0.212
92 | AATTTAGC | 0.071
93 | CAAATCTG | -0.0129
94 | ACATAAGT | 0.0342
95 | GATTAAGC | 0.0552
96 | AAACTTCA | 0.189
97 | CTCCCCGA | -0.222
98 | CGGTGAAA | 0.106
99 | AAGAAGAT | 0.0886
100 | AATGGGAA | -0.215

Row | Sequence | PBM E-score
101 | AACATGGC | 0.0494
102 | GGGGCACC | 0.0924
103 | ATACAATG | 0.0101
104 | CTTTTCCC | -0.0234
105 | AGAAAGTG | -0.209
106 | ATGAGTAA | -0.0488
107 | ATTGCATC | 0.115
108 | AAAGTAAA | -0.0703
109 | CTCCTTTA | -0.196
110 | AAGAAATA | 0.0789
111 | ATGCTATA | -0.0011
112 | AACACGTT | 0.024
113 | GCAATAGA | 0.0181
114 | TCTGCAAA | 0.0405
115 | AGCGCCGA | 0.321
116 | AGAGCCTA | -0.0545
117 | GTACATAC | -0.00141
118 | ATCACAAC | 0.112
119 | ACGAAAAG | 0.169
120 | CAACTGAC | -0.0279
121 | GAAAAAGC | 0.0911
122 | GCTCCACA | -0.0368
123 | CGTCTGAC | 0.047
124 | CTAGTGAG | 0.0162
125 | CTTAACTA | 0.109

Row | Sequence | PBM E-score
126 | ATCTTAAG | 0.0798
127 | AATAGGGC | 0.181
128 | ACTTTCAT | -0.0308
129 | AACGCCCC | 0.213
130 | ATCAGAAA | 0.0189
131 | ATTCTCAG | -0.0695
132 | TGTAACAA | 0.0601
133 | CAGGTGGA | -0.0677
134 | AGTTCTCG | -0.0106
135 | AATATCAC | 0.102
136 | CAGCGACC | -0.0884
137 | AAGTCAAC | -0.131
138 | CCTCATTA | 0.102
139 | TCGCCAAA | -0.178
140 | ATTTGCTG | 0.188
141 | GGAGGCGA | 0.0142
142 | AATCCTTG | -0.0225
143 | AAAGGCAT | 0.305
144 | CTGCGATC | -0.0846
145 | AGCTGAGC | -0.0204
146 | CAAGCGGA | -0.0234
147 | GAGCCCCC | -0.4
148 | CCTTGCTA | 0.091
149 | ATCTTAAA | -0.0445
150 | ACGGCTCT | 0.454

Row | Sequence | PBM E-score
151 | ATCCCCGA | -0.354
152 | CAATAAGA | 0.082
153 | ATACTTCA | 0.00247
154 | CCCGTCAC | -0.328
155 | ATCGATGC | 0.203
156 | AGAAGCCA | 0.145
157 | ATGAGGAG | -0.0141
158 | AGTATCAC | 0.132
159 | GATCTTCC | -0.171
160 | AATCACGG | 0.215
161 | GCATTTCC | 0.146
162 | GTCCAGGA | -0.179
163 | TTCACCAA | 0.204
164 | CTTAATGA | -0.0422
165 | CCGACTAG | -0.135
166 | AAATTTAT | 0.176
167 | AGCGGCAT | 0.406
168 | GACGATAA | -0.102
169 | CACTATGC | 0.0415
170 | AGAATCGC | 0.125
171 | AACACTAC | -0.0164
172 | CGGCACAG | 0.398
